Screen size: about 52,000 compounds; about 4,300 (8.3%) were called active. Cut-off read from the data, not from the text of the source: active = survival mostly below about 52% (no sharp cut-off); inactive = mostly above about 56%. Some of the results follow.

This assay relates to DeltatarO mutant. Kind of assay: S. aureus survival, RN4220 and DeltatarO strains – OD600, teichoic acid synthesis inhibitors, primary screen (AID 463173). The following applies: S. aureus RN4220 wild type/DeltatarO growth, OD600, 18 h, stronger effect = lower value, screened at 18.75 µg/mL (by protocol).
Take `Cc1ccc(N(CC(=O)Nc2cccc(Cl)c2C)S(=O)(=O)c2c(C)noc2C)cc1`: the survival was inactive: 54%.
Turning to `Cc1cc(C)c(NC(=O)CSc2nc3ccccc3c3nc(CCn4cncc4C)nn23)c(C)c1`, the survival is inactive: 90%.
With `O=S(=O)(c1ccc(Cl)cc1)c1nc(-c2ccccc2Br)oc1NCc1ccccc1`, the survival is inactive: 83%.
Turning to `CCN(CC)CCCNc1cc(-c2ccccc2)nc(C)n1`, the survival was inactive: 65%.
For `Cc1ccc(C)c(OCCn2c(C3CC(=O)N(Cc4ccc(F)cc4)C3)nc3ccccc32)c1` (configuration not stated), the survival is active: 0%.
On to `CCN1CCN(C(=O)c2ccc3c(c2)N(Cc2cccc(Cl)c2)C(=O)c2ccccc2S3=O)CC1` (configuration not stated), for which the survival was inactive: 92%.
Turning to `CCC(C(=O)Nc1ccc(C(C)=O)cc1)n1cnc2nc3c(cc2c1=O)CCCC3` (configuration not stated), the survival is inactive: 91%.
With `CCOc1ccccc1NS(=O)(=O)c1ccc2c(c1)CC(C)N2C(=O)C1CC1` (configuration not stated), the survival is inactive: 73%.
As to `COc1cc(C(CC(=O)NCc2ccccc2)N2Cc3ccccc3C2=O)cc(OC)c1OC` (configuration not stated), the survival is inactive: 135%.
Next, `S=C1NCN(CCCn2ccnc2)CN1`: inactive: 57%; `CCc1c(C)nc2nncn2c1Nc1ccc(Cl)cc1`: inactive: 91%; `COc1ccc(-n2c(=O)c3c4c(sc3n(Cc3ccc(C)cc3C)c2=O)CCC4)c(OC)c1`: inactive: 66%.
For `CCc1nc2ccccc2n2c(-c3ccccc3)c3c(=O)n(C)c(=O)n(C)c3c12`, the survival is inactive: 75%.
Turning to `COc1ccc2c(C)c(CCC(=O)NCc3ccc(C)cc3)c(=O)oc2c1`, the survival is inactive: 82%.
`CCSc1ccc(C(=O)Nc2ccc(-c3nc4ccc(C)cc4s3)cc2)cc1`: the survival is inactive: 112%.
Take `COC(=O)c1c(SC)nc2ccccc2c1OCc1ccccc1Cl`: the survival was inactive: 115%.
For `CCOc1ccc(NC(=O)C2CCN(c3nc4ccccc4[nH]3)CC2)cc1`, the survival is inactive: 99%.
Turning to `COC(=O)C1=C(C)N=C2SCCC(=O)N2C1c1ccc(OCc2ccccc2)c(OC)c1` (configuration not stated), the survival was inactive: 57%.
`CCOC(=O)c1c(C)[nH]c(C)c1S(=O)(=O)N(C)CC(=O)N1CCN(c2ccc(Cl)cc2)CC1`: the survival was inactive: 88%.
For the compound `CCOc1ccc(CN2CCc3nc(N4CCN(c5ncccn5)CC4)ncc3C2)cc1OC`, the survival is inactive: 95%.
On to `Cc1ccc(-c2c(C(=O)N3CCN(c4cccc(C)c4)C(C)C3)oc(=O)c3ccccc23)cc1` (configuration not stated), for which the survival is inactive: 89%.
Regarding `CCC(CC)C(=O)OCc1cc(=O)n2nc(C3CCCCC3)sc2n1`, the survival is inactive: 88%.
Take `CC(C)(C)OC(=O)N1CCC(c2c(C(=O)NCCc3ccsc3)cnn2-c2ccccc2Cl)CC1`: the survival was inactive: 77%.
On to `CCOc1ccc(N2C(=O)CS(=O)(=O)C23C(=O)N(Cc2cccc(Cl)c2)c2ccccc23)cc1` (configuration not stated), for which the survival is inactive: 78%.
Turning to `O=C(NCCc1csc(-c2ccc(F)cc2)n1)c1ccco1`, the survival is inactive: 87%.
With `CC1=C(C(=O)Nc2cc(Cl)ccc2C)C2(CCCCC2)OC1=O`, the survival is inactive: 78%.
On to `Cc1cc(C)cc(NC(=O)CCc2nnc3n(C)c(=O)c4sccc4n23)c1`, for which the survival is inactive: 75%.
Take `Cc1cc(C)n2nc(CNC(=O)c3ccccc3Cl)nc2n1`: the survival is inactive: 133%.
Take `CCC(=O)NC1CCN(C(=S)NC)CC1`: the survival is inactive: 86%.
With `Cc1cc(C)c(S(=O)(=O)NCC(=O)N2CCc3ccccc3C2)c(C)c1`, the survival is inactive: 89%.
As to `Cn1c(=O)n(C)c2cc(N3CCOCC3)c(NC(=O)c3ccc(Cl)cc3)cc21`, the survival is inactive: 87%.
Consider `O=C(NCc1ccc2c(c1)CCN2C(=O)c1ccncc1)c1ccccc1Cl`, for which the survival was inactive: 96%.
Take `O=C1C(=O)N(C2CCN(S(=O)(=O)c3ccccc3)CC2)CCN1Cc1ccccc1`: the survival is inactive: 99%.
As for `Cc1nc2ccc(C(=O)O)cc2c2c1CC(C)S2` (configuration not stated), the figure is inactive: 100%.
Next, `COc1cccc(N2CCN(C(=O)C3CCCN(S(=O)(=O)c4ccc5c(c4)oc(=O)n5C)C3)CC2)c1` (configuration not stated): inactive: 73%; `COc1ccccc1CCNC(=O)C(=O)NCC(c1ccco1)S(=O)(=O)c1ccc(F)cc1` (configuration not stated): inactive: 94%; `Cn1c2ccccc2c2c(C(=O)N3CCN(c4cccc(Cl)c4)CC3)cn(C3CCCCC3)c(=O)c21`: inactive: 81%.
As to `COc1ccc(OC)c(CCNC(=O)c2cc3cccc4c3n2CC(C)S4)c1` (configuration not stated), the survival is inactive: 72%.
As for `Cn1c(=O)c2c(nc(CN3CCN(c4ccccc4F)CC3)n2Cc2ccccc2F)n(C)c1=O`, the figure is inactive: 92%.
For the compound `COc1ccc(N2CC(NC(=O)COc3ccc(F)cc3)CC2=O)cc1OC` (configuration not stated), the survival was inactive: 98%.
Regarding `Cn1cnc2c(=O)oc3ccc(S(=O)(=O)N4CCN(c5cccc(C(F)(F)F)c5)CC4)cc3c21`, the survival is inactive: 108%.
For the compound `CC(C)(C)OC(=O)N1CCC(c2c(C(=O)Nc3ccc4c(c3)OCCO4)cnn2-c2ccc(F)cc2F)CC1`, the survival was inactive: 76%.
Turning to `CCOC(=O)CC(NC(=O)c1cc2cc(Br)cc(OC)c2oc1=O)c1ccc(OC)cc1` (configuration not stated), the survival was inactive: 58%.
Next, `CCOC(=O)C(=O)NCC(c1cccnc1)N1CCN(c2ccccc2)CC1` (configuration not stated): active: 65%; `CCOC(=O)c1ccc(NC(=O)CSc2ccc(-c3ccccn3)nn2)cc1`: inactive: 63%.
On to `CCN(CC)c1cc(C)c2cc(NC(=O)c3ccccc3Cl)ccc2n1`, for which the survival was inactive: 55%.
For the compound `Cc1ccc(-c2nc3c(c(SCC(=O)N(C)c4ccccc4)n2)Cc2c(CO)cnc(C)c2O3)cc1`, the survival is inactive: 64%.
Turning to `CCC1CN(C(=O)NCc2ccccc2)c2cc(Cl)ccc2O1` (configuration not stated), the survival is active: 46%.
For `O=C(Nc1cccc(OCc2cc(=O)n3ccccc3n2)c1)c1ccccc1Br`, the survival is inactive: 88%.
As for `COc1ccc(S(=O)(=O)NCCc2nnc3ccc(SCC(=O)Nc4cc(C)cc(C)c4)nn23)cc1`, the figure is active: 63%; as for `COC(=O)CN1C(=O)CSc2ccc(S(=O)(=O)Nc3cccc(C)c3)cc21`, inactive: 101%; as for `COCCn1nnnc1C(c1ccncc1)N1CCCC1` (configuration not stated), inactive: 80%.
In the case of `Cc1cccc(C(=O)Nc2nc3nc(-c4ccccc4)cc(=O)n3[nH]2)c1`, the survival is inactive: 73%.
As for `CCSc1ncc(Cl)c(C(=O)Nc2ccc(S(=O)(=O)Nc3ncccn3)cc2)n1`, the figure is inactive: 81%; as for `CC(C)(C)CC(=O)Nc1nnc(-c2ccccc2)s1`, inactive: 86%; as for `COc1cccc(CNC(=O)CCCn2ncn3c(cc4occc43)c2=O)c1OC`, inactive: 119%.
Regarding `CCCc1nnc(NC(=O)C(CC)Sc2nnc3c4ccccc4n(C)c3n2)s1` (configuration not stated), the survival is inactive: 61%.

The values are drawn from PubChem BioAssay AID463173 (ICCB-Longwood Screening Facility, Harvard Medical School, 2010).
